± gives the standard deviation of the averaged measurements. The list shows a part of the results.
The sequences below were run on PfAP2-LT AP2 domain (GST-tagged) (assay: gcPBM binding intensity (ln(normalized median fluorescence intensity)); higher = stronger DNA binding).
Procedure, shortened: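 Binding intensity values are the highest Masliner-normalised natural-log median intensity among replicate spots of either probe orientation. The binding step lasted 1 h in 1× PBS with 1% milk, 0.2 mg/ml BSA, 0.5% salmon testes DNA and 0.03% Triton X-100, using GST-tagged P. falciparum DNA-binding domains expressed in E. coli on an Agilent 4 × 180k array of primer-extended double-stranded 36-bp intergenic genomic probes plus negative controls. Alexa488 anti-GST antibody and a 488 nm scan detected bound protein.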

Sequence	gcPBM binding intensity (ln)
ATTGTGGATATTCTTACACACAAATTTATATATAAA [CACACA_site2601]	8.74 ± 0.37
TTATGAATACTTCAAGTGCATTTATTTTATATGACA	8.63 ± 0.48
TATTTGTAATATTATACACACATTATGTATTACAAA [CACACA_site3386]	8.85 ± 0.34
TTTTGTATATTATATGTACACACAATAAGTTAATAT [CACACA_site8207]	8.85 ± 0.31
ATACACACATATATGTGTACATATACATATATATAT [XGTACX_site6744]	9.88 ± 0.32
ATAATATGAAGAAGCACACTCAATTAAATACAGATA [CACACA_site4690]	9.01 ± 0.39
AACAAAATAGGGAACACACACATGTCGATATATAAA [CACACA_site7265]	9.34 ± 0.46
AAGAATTATTTTTTATGTACTTATATGTCAATTTTC [XGTACX_site6676]	8.78 ± 0.43
ATAGAATATTTTATTACACACAGAATAATAAAAAAT [CACACA_site6190]	8.97 ± 0.35
TTATTTTTTTTAGCATATACAAATATATATATATAT [GTGCAC_negctrl_site4]	8.78 ± 0.2
CTAAAAGGATGATGAATGCACTATTATTTATATGGA	8.59 ± 0.43
TGAAATTTGTTATATGCATGTAAAATATTACGACGA [TGCATGCA_site201]	8.65 ± 0.44
TTGTGTGAGCAAGTAGTGCATAATATAAATAAAAAA [GTGCAC_site9802]	9.07 ± 0.49
CATAAATATTTGTGTTGTACAAATATATATATTTAT [XGTACX_site7363]	8.71 ± 0.32
AAAATTGAAGGTAGAAGTACATATTTATTTCAATAA [XGTACX_site8732]	8.51 ± 0.5
GAAGGAAATAAATCAACACACATATATTATATATAT [CACACA_site2188]	9.05 ± 0.48
TGTATTTATTAATGTACACACATGCGTATGTTCGTT [CACACA_site5892]	9.46 ± 0.34
TATATAATATATTTATGTACGTATTTAAAAATTTAT [XGTACX_site160]	8.43 ± 0.42
TATGTCCATATTTCCACACACATATTATTTTTATAT [CACACA_site3798]	9.3 ± 0.42
TATTAAAAAATTATATGTACACATTTGTTATATACA [XGTACX_site2232]	8.63 ± 0.4
ATAAAAAAATAAATAACACACAAAATTACACGAAAA [CACACA_site3620]	9.09 ± 0.36
AATTAAAGGAATTACAACTTTGCAAGCGCAACATAA [CACACA_negctrl_site1411]	8.56 ± 0.46
TTCTTTATATATGTTCGTACATATTATTATAATACA [XGTACX_site1549]	8.82 ± 0.53

Sequence	gcPBM binding intensity (ln)
TAATTTTCATGTTCATGTACTTAAATATAAGGTAAA [XGTACX_site3284]	8.27 ± 0.4
TGCCTTATTAAAAGAATTACACATATTTAATCGAAA [GTGCAC_negctrl_site153]	8.31 ± 0.39
ATTCATAACAAAAAAAGTACTCAAAATAATAATAAA [XGTACX_site6079]	8.58 ± 0.51
AAATATATTTTTAATAGTACAATATGAAAATTTCAT [XGTACX_site2562]	8.41 ± 0.39
AGTAATTATTTTAGAGTGCATAGTTTTTTAATAAAT	8.46 ± 0.45
CACCATGTTAACAATACATGCATCACTATATAAATG [TGCATGCA_site36]	8.78 ± 0.35
AAAAAAAAGGAAATAACACACATGTATATATTTATA [CACACA_site1606]	8.89 ± 0.42
GTACACATATATATATATATATATATATATATATAT [CACACA_negctrl_site800]	10.1 ± 0.34
TTTTTTTTTTTTTTTTGTACTCATACATACTATTAT [XGTACX_site989]	8.69 ± 0.55
TTTTTATTATTTTAAAGTACTCTTTAGTAATTCCCT [XGTACX_site5863]	8.54 ± 0.52
AAAAAACATACATACACACACATAAATATTTATATT [CACACA_site7300]	9.51 ± 0.31
CACAGATAAATTAACACACACACACCGATATATATA [CACACA_site6049]	10 ± 0.16
CGGAAAAATTAAAGCACACAAAAAAAAATAAAAAAA [CACACA_site1133]	9.02 ± 0.52
TTTTATTAATATTGCATGCACACTATATAATAATTG [CACACA_site1049]	9.21 ± 0.35
AATATTTCTTTAATTTGTACATATAAGGGAAAATAA [XGTACX_site6221]	8.24 ± 0.41
ATTTCTTCTTTTTTTGTGAAACTGGAATATATATAT [XGTACX_negctrl_site527]	8.7 ± 0.5
TCATTCTAAATATAAACACACATAAATAAATACATT [CACACA_site5788]	8.79 ± 0.33
ATATATATTTTAATAACACACATATATTATATTATA [CACACA_site4387]	8.7 ± 0.38
CTTAGGTGTTCATAGAGTACAAATAAAAAAATAAGA [XGTACX_site2294]	8.77 ± 0.46
TATATATATTATTATGCATGTAATAAAACAAATAAT [TGCATGCA_site625]	8.76 ± 0.33
ACGTTACATACATATACACACACATATATATATATA [CACACA_site8203]	9.93 ± 0.16
GATGTTTCTATTTTAGTGCATTTTAAATAAATAAAT	8.46 ± 0.35
GGTGGTGGTGGGTGGGTGCTTCTATTATTATATTAT [GTGCAC_site9391]	9.835 ± 0.035

Sequence	gcPBM binding intensity (ln)
ATATAGATCTATAATACACACTTATGAAATGTCTAA [CACACA_site6946]	8.9 ± 0.4
TTGTTTCCGATGAAAGAAAGGAAATTATAATATATC [GTGCAC_negctrl_site516]	8.43 ± 0.44
GTCTCCTTTATTTTTGGTACAGATAAGATAAAAGGA [XGTACX_site1591]	8.35 ± 0.4
GTGTTCATATATAGCCGTACATATGTCTTATGAACG [XGTACX_site5647]	8.86 ± 0.49
AATCAAAATATATCTACACACATTTAAGTAACCCAT [CACACA_site5846]	9.11 ± 0.38
TATAACATTATTTTGTGTACACATTCGGTTATATTA [XGTACX_site6310]	9.06 ± 0.49
TTTGTGCTTATCCTAACACACACAACATATAAGAAA [CACACA_site9091]	8.96 ± 0.35
ATATATATTTTTATAACACACAATGATGTACATTAC [CACACA_site1076]	8.99 ± 0.48
TGTGTAGCTAGGGGGTTGCTAATTTTTGTTTTGACC [CACACA_negctrl_site634]	9.41 ± 0.071
TTATATATACCATAATGTACTCTATTATATAAAAAA [XGTACX_site7464]	8.41 ± 0.4
TAAAATAATATTTATGTGCACATATAATTATTAATT	8.6 ± 0.35
AGAAAAAACAAAAGAGAAATGAAAAAAAAAAAAAAA [XGTACX_negctrl_site482]	8.51 ± 0.53
TTATGTTGCGAGTTCTTAAGATATAAAAAATTCTTC [GTGCAC_negctrl_site45]	8.51 ± 0.38
ATCATAACTTGATACGCACACGTTATATAAATAAAA [CACACA_site4955]	8.88 ± 0.4
TGAGAATAAAAAAAAGGGATTATTAGATTTCTCCTT [TGCATGCA_negctrl_site326]	8.41 ± 0.41
AAGACAAATTGTGACACACACAAAAAAAAAAAAAAA [CACACA_site3727]	9.25 ± 0.62
AAAAAAATAAGGTGCACACAAAAAAAAAAAAAAAAA [CACACA_site812]	9.11 ± 0.4
ATTCAATAAACGTATTGTACAAAAGAACGATATATT [XGTACX_site2533]	8.96 ± 0.33
TATTGGATCACACAAAAATGTATAAATAAATAGAAA [TGCATGCA_negctrl_site490]	8.71 ± 0.45
TACCTTATATTATATACACACATATAATATAATATA [CACACA_site1328]	8.78 ± 0.4
GATTCATTTCGTAATACACACAACAAATATTTCAAA [CACACA_site1772]	8.88 ± 0.39
AATGTAAATAAGTGTACACATATATAATACATACAT [CACACA_site4938]	9.2 ± 0.35
TAAAAAAAAATAAAAAGTACATATATATATATATAT [XGTACX_site1155]	9.69 ± 0.42

Sequence	gcPBM binding intensity (ln)
AATGGAAAAATAGGCACACACACATAAATACAGATA [CACACA_site4844]	9.85 ± 0.32
AATATGAAACAAGACGCACACATAAATAAATAAATA [CACACA_site326]	9.49 ± 0.42
AGTGCTACTCATGATTGAATAGAGGAAAAGGCGGTG [GTGCAC_negctrl_site49]	8.85 ± 0.52
CTTTAAATGATGTAAACACACACATATACATTATTA [CACACA_site9035]	9.1 ± 0.28
CACATAAAAAAATAAACACACATATGTATATAAATA [CACACA_site7483]	9.09 ± 0.48
CCATATTTAATAAAATGTACTCATTCTTTTATTTTA [XGTACX_site7802]	8.55 ± 0.46
CTGTTCAAAATATGAACACACACATATATATATATA [CACACA_site8638]	9.71 ± 0.17
TTAATAGTGGAAATATGTACATAATTTTGGTCTTTT [XGTACX_site1664]	8.73 ± 0.4
TTGAAAAATCAGCACACACACAAATACATACATATT [CACACA_site7505]	9.7 ± 0.33
CTAAAAAAATAATAAAGTACACAAACGAATATATAA [XGTACX_site668]	8.96 ± 0.4
ACATATGGCACATATGTACACACGTATAGATAATAT [CACACA_site2024]	9.3 ± 0.5
TTTTTTTTTTTTTTTGCACACTATATTTAATATAAG [CACACA_site2444]	8.77 ± 0.46
CTTTTTTGGTACATCACACATTTTTACATTCCCTTT [CACACA_site4957]	9.02 ± 0.52
CCACTATATAAAATCACACATTTATATTATACATAT [CACACA_site4570]	8.9 ± 0.46
ATAGATGCATATTATACACACATATGTAAATACATT [CACACA_site4691]	9.29 ± 0.4
TATTGGTAATGTAAATGTACATATAGATATTTACAT [XGTACX_site1922]	8.69 ± 0.33
TTTATTTTAATTTATTGTACATTGTTATCAAGTGCA [XGTACX_site1110]	8.51 ± 0.49
TTGAAGTTAATAAAAACTTTATACATGAAATTATTT [CACACA_negctrl_site684]	8.36 ± 0.47
AAAAAAAGAAATTAGGTGCATAGCATTAACCGATAA [GTGCAC_site9582]	8.81 ± 0.51
ATAATAGTTAAATGTACACACTAACTACATGGAATA [CACACA_site5753]	8.98 ± 0.31

From the supplement of paper PMC11417369
